We go through 42 molecules from ChEMBL document CHEMBL4888484, “Replenishing the malaria drug discovery pipeline: Screening and hit evaluation of the MMV Hit Generation Library 1 (HGL1) against asexual blood stage Plasmodium falciparum ,using a nano luciferase reporter read-out” (2022).

In all, about 150,000 compounds went through this assay and about 540 (0.36%) showed an effect of 50% or more. The list shows a part of the results.

This assay relates to Plasmodium falciparum. The experiment in a line: Primary screen in NF54 nanoGlo assay, in single point, at 2uM, 72h; a lower Z score goes with more inhibition. Type of assay: functional, Erythrocyte. To be noted: timepoint 72 hour.
For `O=c1nc(Nc2ccccc2)sn1Cc1ccccc1`, the “% Inhibition” value was -14% and the Z score is given as 2.01.

Take `COc1ccccc1-c1nnc2c3cc(C)ccc3nc(N3CCOCC3)n12`: the “% Inhibition” value is on record as -4% and the Z score came out at 0.42.

With `CCN(c1nc(COC)nc2scc(-c3ccccc3)c12)[C@H]1CCNC1=O`, the “% Inhibition” value is listed as -6% and the Z score is 0.96.

As for `CC[C@H](C)NC(=O)Cc1csc(Cc2ccccn2)n1`, the “% Inhibition” value is -18% and the Z score is reported as 2.59.

Turning to `CS(=O)(=O)Cc1cccc(CNc2nccn(C3CC3)c2=O)c1`, the “% Inhibition” value is on record as -9% and the Z score amounted to 0.87.

Turning to `O[C@@H](CNCCOc1ccccc1F)COc1ccc2ccccc2c1`, the “% Inhibition” value was 32% and the Z score is recorded as -2.68.

On to `Cc1ccc(C(C)NC(c2nc(-c3nnc[nH]3)no2)C(C)(C)C)o1` (centres undefined), for which the “% Inhibition” value is given as -2% and the Z score stood at 0.33.

In the case of `COc1cccc(C(=O)N2CCC(c3nc(-c4ccc5c(c4)OCO5)no3)CC2)c1OC`, the “% Inhibition” value amounted to 42% and the Z score was -6.01.

`COc1ccc(CC(=O)N2CCc3nc(N4CCN(C)CC4)nc(N4CCCC4)c3C2)cc1`: the “% Inhibition” value was determined as 4% and the Z score was -0.78.

As for `O=C(C[C@@H]1C=CCC1)Nc1cccc(N2C(=O)CCNC2=O)c1`, the “% Inhibition” value was -13% and the Z score is 1.15.

As for `Cc1cc(-c2csc(NC(=O)c3cccnc3Oc3cccnc3)n2)c(C)o1`, the “% Inhibition” value was 1% and the Z score is recorded as -0.13.

In the case of `C[C@@H](c1cccc(C(F)(F)F)c1)N(C(=O)c1cc(F)cc(F)c1)C1CC1`, the “% Inhibition” value is on record as -9% and the Z score came to 1.14.

Consider `COc1cccc(Cn2ncc3ccc(C(=O)NCCN4CCC[C@H](C)C4)cc32)c1`, for which the “% Inhibition” value is -15% and the Z score is 1.28.

For the molecule `CNC(=O)c1ccc(CNC(=O)C2=C(C)Oc3ccccc3C2)cc1`, the “% Inhibition” value is -15% and the Z score was found to be 1.56.

For `COc1ccccc1C(=O)NC1=NN2C(=NC(c3ccc(Cl)cc3)=C[C@H]2c2ccc(Cl)cc2)N1`, the “% Inhibition” value is 97% and the Z score is reported as -10.07.

Turning to `CO[C@](C)(C(=O)N1CCC(Oc2cc(C)ccn2)CC1)C1CC1`, the “% Inhibition” value is -5% and the Z score is reported as 0.71.

With `CCCn1cnc2c1c(=O)n(C[C@H]1CCCO1)c(=O)n2-c1ccccc1`, the “% Inhibition” value was determined as 2% and the Z score is on record as -0.36.

On to `C[C@H](NCC1(c2c(F)cccc2F)CC1)c1cnn(C)c1`, for which the “% Inhibition” value was -3% and the Z score was 0.45.

On to `Cc1noc(NC(=O)N2CC(C)(C)[C@H]2c2ccncc2)n1`, for which the “% Inhibition” value is -7% and the Z score was found to be 0.56.

In the case of `Cc1cc(Br)ccc1NC(=O)CN1CCC(=O)NC1=O`, the “% Inhibition” value is recorded as -11% and the Z score was 0.97.

For the molecule `CC1CN(C(=O)Nc2ccc(Cl)c(Cl)c2)C(C)CC1=O` (centres undefined), the “% Inhibition” value is listed as -9% and the Z score stood at 1.02.

Take `Cc1ccc(F)c(N2CCC[C@H](NC(=O)CCn3cncn3)C2=O)c1`: the “% Inhibition” value is given as -11% and the Z score is given as 0.99.

As for `NC(=O)N1CCCc2ccc(NCc3cnn(CC(F)F)c3)cc21`, the “% Inhibition” value is on record as -4% and the Z score turned out to be 0.75.

Turning to `CC[C@@H](C(=O)Nc1nonc1C)c1ccc(F)cc1`, the “% Inhibition” value is reported as -1% and the Z score worked out at 0.15.

In the case of `Cc1csc(=O)n1CCN[C@H]1CCCCC1(C)C`, the “% Inhibition” value amounted to 7% and the Z score was -0.68.

For `Cc1cc(C)c(S(=O)(=O)N2CCC[C@H]2C(=O)NC2CCCC2)c(C)c1`, the “% Inhibition” value came to 2% and the Z score is listed as -0.23.

As for `Cc1cc(OC2CN(C(=O)c3snnc3C)C2)n2ncnc2n1`, the “% Inhibition” value was determined as 18% and the Z score is given as -2.4.

Take `Cc1noc(C)c1-c1ccc(S(=O)(=O)NCCc2ncnn2C)s1`: the “% Inhibition” value is listed as -8% and the Z score is 1.46.

In the case of `COc1cccc(-n2ccnc2-c2ccccn2)n1`, the “% Inhibition” value is -3% and the Z score was 0.34.

Regarding `O=C1CC[C@H](C(=O)N2CCN(c3ccccc3Cl)CC2)CN1CCN1CCOCC1`, the “% Inhibition” value was -6% and the Z score amounted to 0.8.

With `O=C1N[C@@](CCCc2ccccc2)(C2CCNCC2)C(=O)N1CCc1ccccn1`, the “% Inhibition” value is -8% and the Z score was found to be 1.48.

In the case of `NC(=O)CN(Cc1cccc2cccnc12)C1CCCC1`, the “% Inhibition” value is given as -31% and the Z score was 4.

Regarding `CNC(=O)C[C@H]1CCN(C(=O)C(C)(C)Nc2ccccc2)C1`, the “% Inhibition” value is recorded as -13% and the Z score is given as 1.67.

For the molecule `O=C(c1conc1C(F)(F)F)N1CCC(c2nccs2)CC1`, the “% Inhibition” value came out at 2% and the Z score is -0.23.

For the molecule `Cn1nc(CN(C(=O)NCc2ccc(F)cc2)C2CCCC2)cc1C1CC1`, the “% Inhibition” value is 11% and the Z score is recorded as -1.49.

In the case of `COCCC(=O)N1CC[C@@]2(C1)NCc1ccccc1N=C2NC(C)(C)C`, the “% Inhibition” value is given as -3% and the Z score is given as 0.49.

As for `Cn1cccc1C(=O)C(=O)N1C[C@@H]2CC[C@H]1CN(Cc1ccccn1)C2`, the “% Inhibition” value is recorded as 11% and the Z score was -1.03.

As for `Cc1ccc(C2=C[C@@H](c3ccc(C)cc3)n3nnnc3N2CC(=O)NCc2ccccc2)cc1`, the “% Inhibition” value is recorded as -4% and the Z score turned out to be 0.42.

As to `Cc1cc(CNC2CCC(F)C2)n(C)n1` (centres undefined), the “% Inhibition” value is listed as -6% and the Z score is 0.73.

As to `O=C(NC[C@@H](CO)Cc1ccc(F)cc1)c1ccc2c(c1)CCOC2`, the “% Inhibition” value was -24% and the Z score is on record as 2.53.

Consider `Cc1cnn(C2CCCC2)c1NC(=O)N1CC[C@H]2CC[C@@H](C1)N2C`, for which the “% Inhibition” value was -14% and the Z score was determined as 1.79.

For `CCN(CC)CCOc1cc(C)ccc1C`, the “% Inhibition” value was -5% and the Z score turned out to be 0.85.

In general, % Inhibition refers to the relative decrease from the control value, in per cent.
